Where “and” joins values, the source holds several entries; their conditions need not be identical. Identical values can stand only once. The campaign covered roughly 16,000 compounds. About 120 (0.75%) were called active. The inconclusive results got no clear call from the source; some entries with a clear call stand among them for comparison. Calls follow the shape of the dose curve; as a rule, active = well fitted inhibition curve with a large enough effect; inconclusive = small, poorly fitted or top-dose-only effect; inactive = no such curve, though single readings can be large or run the other way. Potencies beside an inconclusive call are fits to weak or partial responses and may not hold up. A structure can be active in one record and inactive in another.
These molecules were tested against Rap guanine nucleotide exchange factor 3 (Homo sapiens) (UniProt O95398) (assay: Validation qHTS for antagonist of cAMP-regulated guanine nucleotide exchange factor 3 (EPAC1)). Details: EPAC1 Rap1B-BODIPY-GDP exchange, fluorescence; activity change, negative = inhibition: at 150 µM (top of the series).
Sequence of UniProt O95398 (O95398 whole entry, looked up): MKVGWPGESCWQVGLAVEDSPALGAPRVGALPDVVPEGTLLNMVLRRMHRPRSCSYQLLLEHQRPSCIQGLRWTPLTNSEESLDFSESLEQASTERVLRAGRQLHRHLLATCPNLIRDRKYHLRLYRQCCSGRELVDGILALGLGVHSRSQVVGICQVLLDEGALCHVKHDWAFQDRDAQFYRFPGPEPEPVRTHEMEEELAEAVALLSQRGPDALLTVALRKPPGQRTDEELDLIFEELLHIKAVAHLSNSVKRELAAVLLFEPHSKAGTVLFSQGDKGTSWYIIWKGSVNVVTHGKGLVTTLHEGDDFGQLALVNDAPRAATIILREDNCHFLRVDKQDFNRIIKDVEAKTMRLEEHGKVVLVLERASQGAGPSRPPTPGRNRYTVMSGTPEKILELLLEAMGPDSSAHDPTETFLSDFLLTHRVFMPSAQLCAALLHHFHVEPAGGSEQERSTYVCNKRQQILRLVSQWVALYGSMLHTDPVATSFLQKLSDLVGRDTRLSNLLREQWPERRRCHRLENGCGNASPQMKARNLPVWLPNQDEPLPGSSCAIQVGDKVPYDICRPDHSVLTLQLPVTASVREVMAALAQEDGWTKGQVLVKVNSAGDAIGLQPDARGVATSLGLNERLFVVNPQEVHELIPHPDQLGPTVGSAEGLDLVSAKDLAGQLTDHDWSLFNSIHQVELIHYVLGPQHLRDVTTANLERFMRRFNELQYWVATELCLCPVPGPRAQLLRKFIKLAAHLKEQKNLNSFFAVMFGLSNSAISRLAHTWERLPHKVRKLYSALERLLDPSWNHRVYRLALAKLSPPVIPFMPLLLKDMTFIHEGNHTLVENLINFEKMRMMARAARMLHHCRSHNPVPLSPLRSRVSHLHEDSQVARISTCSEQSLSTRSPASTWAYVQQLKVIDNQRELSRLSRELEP
How it was run: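 Nucleotide exchange followed as fluorescence loss when BODIPY-GDP leaves Rap1B (480 nm excitation, 540 nm emission), read at 5 min intervals over 30 min. Reaction: 100 nM EPAC1, 250 nM RAP1B-BODIPY-GDP, 50 uM GDP; ATA and DMSO define normalization.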
Also: nearly all actives have a fitted effect of over 75% in size.
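For activity change, negative = inhibition in this document: plate controls were DMSO for no effect and ATA control for full effect.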
Potency is read from the fitted curve at half-maximal effect; tags tell the direction and shape of the fitted curve.

Potency, inconclusive:
CC1(C)S[C@@H]2[C@H](N3C(=O)C(c4ccccc4)NC3(C)C)C(=O)N2[C@H]1C(=O)O (stereo partly drawn) 28.2 µM [inhibitor, partial curve, poor fit]
CC1CC2C(C(O)C[C@]3(C)C2CC[C@]3(O)C(=O)CO)[C@]2(C)C=CC(=O)C=C12 (stereo partly drawn) 100 µM [inhibitor, single point]
COc1ccccc1CCC(=O)N1CCOc2c(cc(-c3cnc4ccccc4c3)cc2OC)C1 1.78 µM [inhibitor, full curve, poor fit]
O=C(c1cc(C(F)(F)F)cc(C(F)(F)F)c1)N1CCC2(CCCN(Cc3nccs3)C2)CC1 100 µM [inhibitor, partial curve, poor fit]
CCC1COCCS(=O)(=O)N1Cc1cccc(C(F)(F)F)c1 (stereo not drawn) 63.1 µM [inhibitor, partial curve]
O=C(c1cc(C(F)(F)F)cc(C(F)(F)F)c1)N1CCC2(CC1)CCN(c1ccccn1)CC2 31.6 µM [inhibitor, full curve]
NC(N)=NC(=O)c1nc(Cl)c(N2CCCCCC2)nc1N 100 µM [inhibitor, partial curve, poor fit]
CC(C)=CCC/C(C)=C/CC/C(C)=C/CO 28.2 µM [inhibitor, partial curve, poor fit]
Cc1nc2sccn2c(=O)c1CCN1CCC(=C(c2ccccc2)c2ccc(F)cc2)CC1 3.55 µM [inhibitor, partial curve, poor fit]
O=C(O)Cc1cc(I)c(Oc2cc(I)c(O)c(I)c2)c(I)c1 50.1 µM [inhibitor, partial curve]
O=S1(=O)CCOC[C@H](CC2CCCCC2)N1Cc1ccccc1F 79.4 µM [inhibitor, partial curve, poor fit]
Nc1ccc(O)cc1 63.1 µM [inhibitor, partial curve, poor fit]
O=C(C[N+]12CN3CN(CN(C3)C1)C2)c1ccc(Br)cc1 50.1 µM [inhibitor, full curve, poor fit]
C#CCCCCCCCCCCCC(O)CC(O)COC(C)=O (stereo not drawn) 12.6 µM [inhibitor, partial curve]
CCCCCCCCCCCC(=O)OCC(O)CO (stereo not drawn) 56.2 µM [inhibitor, partial curve, poor fit]
CN(C)c1nc(-c2cccc(C#N)c2)nc2ccccc12 79.4 µM [inhibitor, partial curve, poor fit]
CC[C@H](NC(=O)c1c(C)c(-c2ccccc2)nc2ccccc12)c1ccccc1 15.8 µM [inhibitor, full curve]
COc1ccc(C(=O)N2CCC3(CCCN(Cc4cc(C(F)(F)F)cc(C(F)(F)F)c4)C3)CC2)cc1 28.2 µM [inhibitor, full curve]
COc1ccc(NC(=O)N2CCCC3(CCN(C(=O)c4cc(C(F)(F)F)cc(C(F)(F)F)c4)CC3)C2)cc1 89.1 µM [inhibitor, partial curve]
CC(CC(O)C1OC1(C)C)C1CCC2(C)C3=CCC4C(C)(C)C(=O)CCC4(C)C3CC[C@@]12C (stereo partly drawn) 39.8 µM [inhibitor, partial curve]
COc1ccc2[nH]cc(CCNc3cc(-c4ccccc4OC)ncn3)c2c1 112 µM [inhibitor, single point]
CC(CCC(=O)O)C1CCC2C3CC[C@H]4CC(O)CC[C@@]4(C)C3CC[C@@]12C (stereo partly drawn) 112 µM [inhibitor, single point]
CC[C@H]1c2[nH]c3ccc(C(C)C)cc3c2[C@@H]2CCN3C(=O)CCC[C@H]1[C@H]23 25.1 µM [inhibitor, full curve, poor fit]
C=CCCCCCCCCCCCC(O)CC(O)CO (stereo not drawn) (tested in a mixture with another compound) 89.1 µM [inhibitor, single point]
CC[N+](C)(CC)CCC[n+]1c(-c2ccccc2)c2cc(N)ccc2c2ccc(N)cc21 126 µM [inhibitor, single point]
O=C(O)c1ccccc1Nc1cccc(C(F)(F)F)c1 126 µM [inhibitor, single point]
O=C(c1cccc(F)c1)N1CCC2(CCCN(Cc3cc(C(F)(F)F)cc(C(F)(F)F)c3)C2)CC1 28.2 µM [inhibitor, full curve]
Clc1ccccc1-c1nc(NCc2cccs2)c2ccccc2n1 112 µM [inhibitor, partial curve]
CC(C)(C)CC(C)(C)N=C1Nc2ccc(Cl)cc2NC12C[C@H]1CCC(=O)N3CC[C@@H](C2)[C@@H]13 (stereo partly drawn) 22.4 µM [inhibitor, full curve, poor fit]
COc1ccc2[nH]cc(CCNc3ccnc(-c4ccccc4C(F)(F)F)n3)c2c1 100 µM [inhibitor, single point]
O=C(Nc1cccc(F)c1)N1CCC2(CC1)CCN(C(=O)c1cc(C(F)(F)F)cc(C(F)(F)F)c1)CC2 31.6 µM [inhibitor, partial curve, poor fit]
CC(Oc1ccccc1)C(=O)N[C@@H]1C(=O)N2C(C(=O)OCC3CCCCC3)C(C)(C)S[C@H]12 (stereo partly drawn) 44.7 µM [inhibitor, full curve]
CCCCCc1c2c(cc(O)c1C(=O)O)OC(=O)c1cc(C(=O)CCCC)c(OC)cc1O2 126 µM [inhibitor, single point]
Cc1ccn(CCC(=O)N2CCOc3ccc(C(O)C4CCCCC4)cc3C2)n1 (stereo not drawn) 56.2 µM [inhibitor, partial curve]
C=C1C2CC[C@@]3(C)C(c4ccoc4)OC(=O)C[C@@]13OC1CC(O)C(C)(C)C(CC(=O)OC)[C@@]12C (stereo partly drawn) 100 µM [inhibitor, partial curve]
CCCCCCCCCOC(=O)C1N2C(=O)[C@@H](NC(=O)COc3ccccc3)[C@H]2SC1(C)C (stereo partly drawn) 79.4 µM [inhibitor, partial curve]
CC(C)(C)CC(C)(C)c1ccc(OCCOCC[N+](C)(C)Cc2ccccc2)cc1 126 µM [inhibitor, single point]
CCCCC[C@H]1CN(Cc2ccc(OC)cc2)C(=O)[C@@H]1CC(=O)NCc1ccccc1 100 µM [inhibitor, single point]
CCOc1ccc(Cc2nccc3cc(OCC)c(OCC)cc23)cc1OCC 7.08 µM [inhibitor, full curve, poor fit]
N[C@@H](Cc1cc(I)c(O)c(I)c1)C(=O)O 11.2 µM [inhibitor, partial curve, poor fit]
C=CS(=O)(=O)N(Cc1ccccc1Br)[C@H](CO)Cc1ccccc1 63.1 µM [inhibitor, partial curve, poor fit]
O=C1C(Nc2ccccc2)=CC(=O)c2ncccc21 158 µM [inhibitor, partial curve]

Potency, inactive:
O=C1C=CC2=C3c4cc(O)c(O)cc4C[C@@]3(O)COC2=C1
CC(C)c1c(C(=O)NCC(C)(C)N2CCOCC2)cnn1-c1nccc(-c2ccccc2F)n1
O=c1c(-c2ccc(Cl)cc2)nc2cnc(N3CCNCC3)nc2n1CCc1ccccc1
CCCN1CCC(=O)N([C@H](CO)Cc2ccccc2)CC1
COc1cc(=O)n2c(c1C(=O)N(C)Cc1ccsc1)CCN(Cc1c(C)nc3sccn13)CC2
COc1cc(=O)n2c(c1C(=O)N(C)Cc1nonc1C)CCN(Cc1ccc(F)cc1)CC2
CO[C@H]1C=CO[C@@]2(C)Oc3c(C)c(O)c4c(O)c(cc(O)c4c3C2=O)NC(=O)/C(C)=C\C=C/[C@H](C)[C@H](O)[C@@H](C)[C@@H](O)[C@@H](C)[C@H](OC(C)=O)[C@@H]1C
CN(C)c1ccc(/C=C/c2ccnc3c2ccc2ccccc23)cc1
[N-]=[N+]=Nc1nc2c(N)ncnc2n1C1OC(CO)C(O)C1O (stereo not drawn)
O=c1c(-c2ccccc2)nc2cnc(Oc3cccc(Cl)c3)nc2n1C[C@H]1CCCO1
O=c1cc(-c2ccc(O)c(O)c2)oc2cccc(O)c12
O=C(c1cnsn1)N1CCOc2ccc(CN3CCOCC3)cc2C1
Cc1ccccc1C(=O)NC(C)c1nnc2n1CCN(Cc1ccc(F)cc1)CC2 (stereo not drawn)
COc1ccccc1CNc1nc(-c2ccc(N(C)C)cc2)nc2ccccc12

Potency, active:
COc1ccc(C(=O)CC(=O)c2ccc(C(C)(C)C)cc2)cc1 79.4 µM
CC1(COc2ccc(CC3SC(=O)NC3=O)cc2)CCCCC1 (stereo not drawn) 35.5 µM
Cc1c(S(=O)(=O)O)oc2c1C(=O)C(=O)c1c-2ccc2c1CCCC2(C)C 100 µM
O=C1C=CC2=C3c4cc(O)c(O)cc4CC3(O)COC2=C1O (stereo not drawn) 56.2 µM and 25.1 µM
CCCc1c(OCCCOc2ccc(OCC(=O)O)cc2)ccc(CC=O)c1O 100 µM
O=C(Nc1ccc(S(=O)(=O)N2CCOCC2)cc1)c1cc(Cl)ccc1NS(=O)(=O)c1ccc(Cl)s1 112 µM

Activity change, negative = inhibition, inactive:
CC1(COc2ccc(CC3SC(=O)NC3=O)cc2)CCCCC1 (stereo not drawn) 12.3% [at 15.3 µM]

— PubChem BioAssay AID1645882 (National Center for Advancing Translational Sciences (NCATS), 2021)
